# Test results: the supplement of paper PMC8728848
# The other results are listed elsewhere or left out.
# Experiments:
# Assay in all cases: glycan array binding signal (z-score within array); higher = stronger binding
# Conditions in all cases: glycan notation: IUPAC condensed, linker removed
# [1] = biological target: Gal(b1-4)GlcNAc(b1-2)[Gal(b1-4)GlcNAc(b1-6)]Man(a1-6)[GlcNAc(b1-4)][Gal(b1-4)GlcNAc(b1-2)Man(a1-3)]Man(b1-4)GlcNAc(b1-4)GlcNAc
# Summary of the method: (§1)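 The binding signal is a Z-score computed within each array. Data were drawn from 3228 arrays in the Consortium for Functional Glycomics database, restricted to those with a known protein sequence. Scores were averaged over arrays of the same protein sequence at different concentrations or buffers, and over linkers, and negative values can be taken as non-binding.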
# [2] = biological target: Gal(b1-4)GlcNAc(b1-2)[Gal(b1-4)GlcNAc(b1-6)]Man(a1-6)[GlcNAc(b1-4)][Gal(b1-4)GlcNAc(b1-2)[Gal(b1-4)GlcNAc(b1-4)]Man(a1-3)]Man(b1-4)GlcNAc(b1-4)[Fuc(a1-6)]GlcNAc
# Summary of the method: as §1
# [3] = biological target: Gal(b1-4)GlcNAc(b1-3)Gal(b1-3)GalNAc
# Summary of the method: as §1
# [4] = biological target: Gal(b1-4)GlcNAc(b1-3)Gal(b1-3)GlcNAc
# Summary of the method: as §1
# [5] = biological target: Gal(b1-4)GlcNAc(b1-3)Gal(b1-4)Glc
# Summary of the method: as §1
# [6] = biological target: Gal(b1-4)GlcNAc(b1-3)Gal(b1-4)GlcNAc
# Summary of the method: as §1
# [7] = biological target: Gal(b1-4)GlcNAc(b1-3)Gal(b1-4)GlcNAc(b1-2)Man(a1-3)[Gal(b1-4)GlcNAc(b1-3)Gal(b1-4)GlcNAc(b1-2)Man(a1-6)]Man(b1-4)GlcNAc(b1-4)GlcNAc
# Summary of the method: as §1
# [8] = biological target: Gal(b1-4)GlcNAc(b1-3)Gal(b1-4)GlcNAc(b1-2)Man(a1-3)[Gal(b1-4)GlcNAc(b1-3)Gal(b1-4)GlcNAc(b1-2)Man(a1-6)]Man(b1-4)GlcNAc(b1-4)[Fuc(a1-6)]GlcNAc
# Summary of the method: as §1
# [9] = biological target: Gal(b1-4)GlcNAc(b1-3)Gal(b1-4)GlcNAc(b1-2)[Gal(b1-4)GlcNAc(b1-3)Gal(b1-4)GlcNAc(b1-6)]Man(a1-6)[Gal(b1-4)GlcNAc(b1-3)Gal(b1-4)GlcNAc(b1-2)Man(a1-3)]Man(b1-4)GlcNAc(b1-4)GlcNAc
# Summary of the method: as §1
# [10] = biological target: Gal(b1-4)GlcNAc(b1-3)Gal(b1-4)GlcNAc(b1-2)[Gal(b1-4)GlcNAc(b1-3)Gal(b1-4)GlcNAc(b1-6)]Man(a1-6)[Gal(b1-4)GlcNAc(b1-3)Gal(b1-4)GlcNAc(b1-2)Man(a1-3)]Man(b1-4)GlcNAc(b1-4)[Fuc(a1-6)]GlcNAc
# Summary of the method: as §1
# [11] = biological target: Gal(b1-4)GlcNAc(b1-3)Gal(b1-4)GlcNAc(b1-3)Gal(b1-4)GlcNAc
# Summary of the method: as §1
# [12] = biological target: Gal(b1-4)GlcNAc(b1-3)Gal(b1-4)GlcNAc(b1-3)Gal(b1-4)GlcNAc(b1-2)Man(a1-3)[Gal(b1-4)GlcNAc(b1-3)Gal(b1-4)GlcNAc(b1-3)Gal(b1-4)GlcNAc(b1-2)Man(a1-6)]Man(b1-4)GlcNAc(b1-4)GlcNAc
# Summary of the method: as §1
# [13] = biological target: Gal(b1-4)GlcNAc(b1-3)Gal(b1-4)GlcNAc(b1-3)Gal(b1-4)GlcNAc(b1-2)Man(a1-3)[Gal(b1-4)GlcNAc(b1-3)Gal(b1-4)GlcNAc(b1-3)Gal(b1-4)GlcNAc(b1-2)Man(a1-6)]Man(b1-4)GlcNAc(b1-4)[Fuc(a1-6)]GlcNAc
# Summary of the method: as §1
# [14] = biological target: Gal(b1-4)GlcNAc(b1-3)Gal(b1-4)GlcNAc(b1-3)Gal(b1-4)GlcNAc(b1-2)[Gal(b1-4)GlcNAc(b1-3)Gal(b1-4)GlcNAc(b1-3)Gal(b1-4)GlcNAc(b1-6)]Man(a1-6)[Gal(b1-4)GlcNAc(b1-3)Gal(b1-4)GlcNAc(b1-3)Gal(b1-4)GlcNAc(b1-2)Man(a1-3)]Man(b1-4)GlcNAc(b1-4)[Fuc(a1-6)]GlcNAc
# Summary of the method: as §1
# [15] = biological target: Gal(b1-4)GlcNAc(b1-3)Gal(b1-4)GlcNAc(b1-3)Gal(b1-4)GlcNAc(b1-3)Gal(b1-4)GlcNAc(b1-2)Man(a1-3)[Gal(b1-4)GlcNAc(b1-3)Gal(b1-4)GlcNAc(b1-3)Gal(b1-4)GlcNAc(b1-3)Gal(b1-4)GlcNAc(b1-2)Man(a1-6)]Man(b1-4)GlcNAc(b1-4)GlcNAc
# Summary of the method: as §1
# [16] = biological target: Gal(b1-4)GlcNAc(b1-3)Gal(b1-4)GlcNAc(b1-3)Gal(b1-4)GlcNAc(b1-3)Gal(b1-4)GlcNAc(b1-2)Man(a1-3)[Gal(b1-4)GlcNAc(b1-3)Gal(b1-4)GlcNAc(b1-3)Gal(b1-4)GlcNAc(b1-3)Gal(b1-4)GlcNAc(b1-2)Man(a1-6)]Man(b1-4)GlcNAc(b1-4)[Fuc(a1-6)]GlcNAc
# Summary of the method: as §1
# [17] = biological target: Gal(b1-4)GlcNAc(b1-3)Gal(b1-4)GlcNAc(b1-3)Gal(b1-4)GlcNAc(b1-3)Gal(b1-4)GlcNAc(b1-2)[Gal(b1-4)GlcNAc(b1-3)Gal(b1-4)GlcNAc(b1-3)Gal(b1-4)GlcNAc(b1-3)Gal(b1-4)GlcNAc(b1-6)]Man(a1-6)[Gal(b1-4)GlcNAc(b1-3)Gal(b1-4)GlcNAc(b1-3)Gal(b1-4)GlcNAc(b1-3)Gal(b1-4)GlcNAc(b1-2)Man(a1-3)]Man(b1-4)GlcNAc(b1-4)[Fuc(a1-6)]GlcNAc
# Summary of the method: as §1
# [18] = biological target: Gal(b1-4)GlcNAc(b1-3)Gal(b1-4)GlcNAc(b1-3)Gal(b1-4)GlcNAc(b1-3)Gal(b1-4)GlcNAc(b1-3)Gal(b1-4)GlcNAc(b1-2)Man(a1-3)[Gal(b1-4)GlcNAc(b1-3)Gal(b1-4)GlcNAc(b1-3)Gal(b1-4)GlcNAc(b1-3)Gal(b1-4)GlcNAc(b1-3)Gal(b1-4)GlcNAc(b1-2)Man(a1-6)]Man(b1-4)GlcNAc(b1-4)GlcNAc
# Summary of the method: as §1
# [19] = biological target: Gal(b1-4)GlcNAc(b1-3)Gal(b1-4)GlcNAc(b1-3)Gal(b1-4)GlcNAc(b1-3)Gal(b1-4)GlcNAc(b1-3)Gal(b1-4)GlcNAc(b1-2)Man(a1-3)[Gal(b1-4)GlcNAc(b1-3)Gal(b1-4)GlcNAc(b1-3)Gal(b1-4)GlcNAc(b1-3)Gal(b1-4)GlcNAc(b1-3)Gal(b1-4)GlcNAc(b1-2)Man(a1-6)]Man(b1-4)GlcNAc(b1-4)[Fuc(a1-6)]GlcNAc
# Summary of the method: as §1
# [20] = biological target: Gal(b1-4)GlcNAc(b1-3)Gal(b1-4)GlcNAc(b1-3)Gal(b1-4)GlcNAc(b1-3)Gal(b1-4)GlcNAc(b1-3)Gal(b1-4)GlcNAc(b1-2)[Gal(b1-4)GlcNAc(b1-3)Gal(b1-4)GlcNAc(b1-3)Gal(b1-4)GlcNAc(b1-3)Gal(b1-4)GlcNAc(b1-3)Gal(b1-4)GlcNAc(b1-6)]Man(a1-6)[Gal(b1-4)GlcNAc(b1-3)Gal(b1-4)GlcNAc(b1-3)Gal(b1-4)GlcNAc(b1-3)Gal(b1-4)GlcNAc(b1-3)Gal(b1-4)GlcNAc(b1-2)Man(a1-3)]Man(b1-4)GlcNAc(b1-4)[Fuc(a1-6)]GlcNAc
# Summary of the method: as §1
# [21] = biological target: Gal(b1-4)GlcNAc(b1-3)Gal(b1-4)GlcNAc(b1-3)Gal(b1-4)GlcNAc(b1-3)Gal(b1-4)GlcNAc(b1-3)Gal(b1-4)GlcNAc(b1-3)Gal(b1-4)GlcNAc(b1-2)Man(a1-3)[Gal(b1-4)GlcNAc(b1-3)Gal(b1-4)GlcNAc(b1-3)Gal(b1-4)GlcNAc(b1-3)Gal(b1-4)GlcNAc(b1-3)Gal(b1-4)GlcNAc(b1-3)Gal(b1-4)GlcNAc(b1-2)Man(a1-6)]Man(b1-4)GlcNAc(b1-4)GlcNAc
# Summary of the method: as §1
# [22] = biological target: Gal(b1-4)GlcNAc(b1-3)Gal(b1-4)GlcNAc(b1-3)GalNAc
# Summary of the method: as §1
# [23] = biological target: Gal(b1-4)GlcNAc(b1-3)Gal(b1-4)GlcNAc(b1-3)[Gal(b1-4)GlcNAc(b1-3)Gal(b1-4)GlcNAc(b1-6)]GalNAc
# Summary of the method: as §1
# [24] = biological target: Gal(b1-4)GlcNAc(b1-3)Gal(b1-4)GlcNAc(b1-6)[Gal(b1-3)]GalNAc
# Summary of the method: as §1
# [25] = biological target: Gal(b1-4)GlcNAc(b1-3)Gal(b1-4)[Fuc(a1-3)]GlcNAc(b1-3)Gal(b1-4)[Fuc(a1-3)]GlcNAc
# Summary of the method: as §1
# [26] = biological target: Gal(b1-4)GlcNAc(b1-3)GalNAc
# Summary of the method: as §1
# [27] = biological target: Gal(b1-4)GlcNAc(b1-3)[Fuc(a1-3)GlcNAc(b1-6)]Gal(b1-4)Glc
# Summary of the method: as §1
# [28] = biological target: Gal(b1-4)GlcNAc(b1-3)[Gal(b1-4)GlcNAc(b1-6)]Gal(b1-4)GlcNAc
# Summary of the method: as §1
# [29] = biological target: Gal(b1-4)GlcNAc(b1-3)[GlcNAc(b1-6)]Gal(b1-4)GlcNAc
# Summary of the method: as §1
# [30] = biological target: Gal(b1-4)GlcNAc(b1-6)Gal(b1-4)GlcNAc
# Summary of the method: as §1
# [31] = biological target: Gal(b1-4)GlcNAc(b1-6)GalNAc
# Summary of the method: as §1
# [32] = biological target: Gal(b1-4)GlcNAc(b1-6)[Gal(b1-3)]GalNAc
# Summary of the method: as §1
# [33] = biological target: Gal(b1-4)GlcNAc(b1-6)[Gal(b1-4)GlcNAc(b1-3)]GalNAc
# Summary of the method: as §1
# Gal(b1-4)GlcNAc6P = biological target: Gal(b1-4)GlcNAc6P
# Summary of the method: as §1
# Gal(b1-6)Gal = biological target: Gal(b1-6)Gal
# Summary of the method: as §1
# Gal3S(b1-3)GalNAc = biological target: Gal3S(b1-3)GalNAc
# Summary of the method: as §1
# Gal3S(b1-3)GlcNAc = biological target: Gal3S(b1-3)GlcNAc
# Summary of the method: as §1
# [34] = biological target: Gal3S(b1-3)[Fuc(a1-4)]GlcNAc
# Summary of the method: as §1
binder,measurement,setting,value
Cohesin-hLangerin (Homo sapiens) (protein) LDDLDAVRIKVDTVNAKPGDTVRIPVRFSGIPSKGIANCDFVYSYDPNVLEIIEIEPGDIIVDPNPDKSFDTAVYPDRKIIVFLFAEDSGTGAYAITKDGVFATIVAKVKEGAPNGLSVIKFVEVGGFANNDLVEQKTQFFDGGANVGDTTEPATPTTPVTTPTTTDDLDAASYPRFMGTISDVKTNVQLLKGRVDNISTLDSEIKKNSDGMEAAGVQIQMVNESLGYVRSQFLKLKTSVEKANAQIQILTRSWEEVSTLNAQIPELKSDLEKASALNTKIRALQGSLENMSKLLKRQNDILQVVSQGWKYFKGNFYYFSLIPKTWYSAEQFCVSRNSHLTSVTSESEQEFLYKTAGGLIYWIGLTKAGMEGDWSWVDDTPFNKVQSARFWIPGEPNNAGNNEHCGNIKAPSLQAWNDAPCDKTFLFICKRPYVPSEPHHHHHH,glycan array binding signal (z-score),[1],-0.44
same,glycan array binding signal (z-score),[2],-0.442
same,glycan array binding signal (z-score),[3],-0.4
same,glycan array binding signal (z-score),[4],-0.419
same,glycan array binding signal (z-score),[5],-0.239
same,glycan array binding signal (z-score),[6],-0.414
same,glycan array binding signal (z-score),[7],0.685
same,glycan array binding signal (z-score),[8],-0.299
same,glycan array binding signal (z-score),[9],3.41
same,glycan array binding signal (z-score),[10],-0.08
same,glycan array binding signal (z-score),[11],-0.412
same,glycan array binding signal (z-score),[12],-0.091
same,glycan array binding signal (z-score),[13],-0.137
same,glycan array binding signal (z-score),[14],0.124
same,glycan array binding signal (z-score),[15],-0.012
same,glycan array binding signal (z-score),[16],-0.185
same,glycan array binding signal (z-score),[17],0.092
same,glycan array binding signal (z-score),[18],1.23
same,glycan array binding signal (z-score),[19],-0.112
same,glycan array binding signal (z-score),[20],0.332
same,glycan array binding signal (z-score),[21],0.548
same,glycan array binding signal (z-score),[22],-0.091
same,glycan array binding signal (z-score),[23],-0.082
same,glycan array binding signal (z-score),[24],0.078
same,glycan array binding signal (z-score),[25],-0.274
same,glycan array binding signal (z-score),[26],-0.438
same,glycan array binding signal (z-score),[27],-0.334
same,glycan array binding signal (z-score),[28],-0.445
same,glycan array binding signal (z-score),[29],-0.334
same,glycan array binding signal (z-score),[30],-0.274
same,glycan array binding signal (z-score),[31],-0.274
same,glycan array binding signal (z-score),[32],-0.235
same,glycan array binding signal (z-score),[33],-0.417
same,glycan array binding signal (z-score),Gal(b1-4)GlcNAc6P,-0.37
same,glycan array binding signal (z-score),Gal(b1-6)Gal,-0.346
same,glycan array binding signal (z-score),Gal3S(b1-3)GalNAc,-0.06
same,glycan array binding signal (z-score),Gal3S(b1-3)GlcNAc,-0.12
same,glycan array binding signal (z-score),[34],-0.36
